The results in this text go back to ChEMBL document CHEMBL4888484, “Replenishing the malaria drug discovery pipeline: Screening and hit evaluation of the MMV Hit Generation Library 1 (HGL1) against asexual blood stage Plasmodium falciparum ,using a nano luciferase reporter read-out” (2022).

The whole screen tested about 150,000 compounds, of which about 540 (0.36%) showed an effect of 50% or more. This is one part of the list.

The test system of the assay is Plasmodium falciparum. As to the kind of experiment: Primary screen in NF54 nanoGlo assay, in single point, at 2uM, 72h; a lower Z score goes with more inhibition. It is filed as functional, Erythrocyte. Conditions: timepoint 72 hour.
For the molecule `COc1cccc2c1OC[C@@H](C(=O)N1CCC(Nc3ccccn3)CC1)C2`, the “% Inhibition” value is listed as -5% and the Z score turned out to be 0.59.
The matching figures for `Cc1ccc(Cl)cc1NC(=O)N1CC[C@H](n2cnnc2C2CC2)C1`: -13% and 1.95.
`O=C(Nc1nc2c(s1)CCCC2)[C@@H]1CCCc2ccccc21`: the “% Inhibition” value is recorded as -6% and the Z score is reported as 0.79.
The matching figures for `CCOc1cc(CNCCCn2ccnc2)ccc1OCc1ccccc1`: 46% and -2.57.
The corresponding values for `CCOc1ccc(NC(=O)Cn2cnc3nc(N(CC)CC)sc3c2=O)cc1` are -3% and 0.57.
Turning to `COc1cccc(C(=O)N2CC(CN3CCN(c4ccccc4)CC3)C(c3cccc(F)c3)C2)c1` (stereo unspecified), the “% Inhibition” value is on record as -2% and the Z score worked out at 0.32.
The matching figures for `COc1ccccc1C1CCC(C)CN1Cc1nnc(C(C)C)o1` (stereo unspecified): -5% and 0.51.
`CC1CC(=O)CCC1c1nc(-c2ccncc2)no1` (stereo unspecified): the “% Inhibition” value is reported as -3% and the Z score turned out to be 0.47.
For `C=CCN1CCN(C(=O)C(C)Oc2ccc3c(c2)C(c2ccc(F)cc2)N(C(=O)CC(C)C)CC3)CC1` (stereo unspecified), the “% Inhibition” value was -9% and the Z score is recorded as 1.18.
The corresponding values for `O=C(c1cnccn1)N1CCC[C@H]1c1ccc(Cl)c(Cl)c1` are -17% and 2.55.
The matching figures for `O=C(NCc1ccc(-n2cncn2)nc1)c1ccc(O)nc1`: -1% and 0.21.
The corresponding values for `COc1cccc(CN2CCC(c3ncc(C)n3CCO)CC2)n1` are 18% and -3.02.
`FC(F)Oc1ccc(-c2ccc(NC[C@H]3CCCO3)nc2)cn1`: the “% Inhibition” value is on record as -7% and the Z score is 1.35.
The matching figures for `CN(Cc1ccc(-c2cc[nH]n2)s1)CC1CCOCC1`: -8% and 0.88.
`C(#CCN1CCOCC1)COc1ccc2ccccc2c1`: the “% Inhibition” value is on record as -17% and the Z score worked out at 1.83.
The matching figures for `Cc1csc(CNC2CCN(Cc3ccccc3)C(C)C2)n1` (stereo unspecified): -5% and 0.74.
The matching figures for `Cc1cc(C)c(S(=O)(=O)Nc2ccc(N3CCNCC3)c(C(=O)NCc3ccccc3)c2)c(C)c1`: -15% and 1.82.
The corresponding values for `O=C(N[C@@H]1COCC[C@@H]1OCc1ccccc1)c1ncoc1C1CC1` are -1% and 0.15.
In the case of `Cc1cc(N2CCCO[C@@H](CF)C2)ccn1`, the “% Inhibition” value is recorded as -8% and the Z score stood at 0.97.
Consider `O=C(C1CC2CCC1C2)N1CCCC1c1ccncc1` (stereo unspecified), for which the “% Inhibition” value is given as -5% and the Z score stood at 0.72.
The matching figures for `COc1cccc2c1nc(NC(=O)CN1CCN(C)C(=O)C1)n2C`: -10% and 1.37.
The corresponding values for `CCC(COc1ccccc1)NC(=O)C1CC12CCOCC2` (stereo unspecified) are -5% and 0.61.
The corresponding values for `O=C(c1ccncc1)N1CCCn2nc(-c3cccs3)cc2C1` are -21% and 3.92.
Regarding `CCOC(=O)Nc1cc(C2CC2)nn1-c1nc2c(c(=O)[nH]1)CCCC2`, the “% Inhibition” value stood at 4% and the Z score is listed as -0.55.
With `Cc1noc(C)c1NC(=O)N[C@@H](C)c1ccc(-n2cccn2)cc1`, the “% Inhibition” value is reported as -9% and the Z score was 1.85.
Regarding `Cc1cccc(C(=O)N2CCc3[nH]nc(C(=O)N(C)C)c3C2)c1`, the “% Inhibition” value came out at 15% and the Z score is -2.39.
In the case of `CN1CCN(CCCOc2ccccc2-c2ncc[nH]2)CC1`, the “% Inhibition” value was -6% and the Z score was 0.94.
The matching figures for `C[C@@H](CC1CC1)Nc1cccc(N2CCS(=O)(=O)CC2)c1`: -5% and 0.63.
With `Cc1ccc(C2CCN(C(=O)[C@@]3(C)CCc4ccccc4C3)CC2)cn1`, the “% Inhibition” value was -8% and the Z score is 0.88.
The corresponding values for `CCn1cc(CC(=O)N2CC(=O)Nc3cc(F)c(F)cc32)cn1` are 2% and -0.27.
The matching figures for `COc1ccc(CC/N=C2/CCc3ccccc3N2)cc1OC`: 6% and -1.21.
The corresponding values for `CCCN1C=NS(=O)(=O)c2cc(C(=O)Nc3ccc(C)cc3C)ccc21` are -5% and 0.84.
Take `Cc1cccc(C)c1OCC(=O)c1ccc2c(c1)N([C@@H](C)C(=O)N1CCOCC1)C(=O)CO2`: the “% Inhibition” value is given as -17% and the Z score amounted to 1.51.
The matching figures for `CCc1ncnc(Oc2cccnc2)c1F`: -11% and 1.56.
The corresponding values for `O=C(CCc1nc(C2CC2)no1)NC1(c2ccccc2F)CC1` are -13% and 1.82.
Consider `C[C@@H](CCNC(=O)C1(N2CCCCC2)CCCCC1)n1ccnc1`, for which the “% Inhibition” value stood at 1% and the Z score is given as -0.28.
The corresponding values for `C[C@@H](c1cccc(C(F)(F)F)c1)N(CC(=O)NC1(C#N)CCCC1)C1CC1` are -6% and 0.62.
The matching figures for `O=C(Nc1nc2ccccc2s1)C1CCN(c2ccc(-c3ccccc3)nn2)CC1`: 13% and -1.45.
As to `COc1nccnc1N1CC[C@H](N(C)C(=O)Cc2cccs2)C1`, the “% Inhibition” value is on record as -6% and the Z score was 0.86.
The corresponding values for `O=C([C@H]1C[C@@H]1c1ccc(OC(F)F)cc1)N1C[C@H](O)C[C@H](O)C1` are -18% and 1.92.
The corresponding values for `C[C@@H](c1ccccn1)N(C)Cc1cn(C)nn1` are 0% and 0.01.
The corresponding values for `CS(=O)(=O)N[C@H]1[C@H](Nc2ccc(C#N)cn2)[C@@H]2CCO[C@@H]21` are -12% and 1.43.
Turning to `CC[C@@H](c1ccccn1)N(C)C(=O)c1oc(C)nc1C`, the “% Inhibition” value is -1% and the Z score came to 0.09.
The corresponding values for `Cc1cc(=O)[nH]c2nnc(-c3ccc(F)cc3)n12` are -4% and 0.47.
The matching figures for `CCOc1ccc(-c2c(-c3ccccc3)ncn2CCN2CCC(O)CC2)cn1`: -5% and 0.52.
The matching figures for `CC[C@@](C)(CNC(=O)COCc1cccc(OC)c1)N1CCOCC1`: -4% and 0.5.
Turning to `COC(=O)c1cn(NC(=O)c2n[nH]c(C)c2Cl)cc2c(=O)[nH]nc1-2`, the “% Inhibition” value is reported as -16% and the Z score was determined as 2.07.
The matching figures for `CC(C)Oc1nc(-c2ccc(C(F)(F)F)cc2)n(-c2ccc(NC(=O)c3ccc(F)cc3)cc2)n1`: -2% and 0.34.
The matching figures for `CC1(C)CC(=O)N(Cc2ccc(C#N)cc2Br)C1=O`: -15% and 2.9.
The matching figures for `Cn1c(=O)c2c(-c3ccc(F)cc3)n3c(c2n(C)c1=O)[C@@H](c1cccc(Cl)c1)Oc1ccccc1-3`: -14% and 1.46.
Turning to `O=C(N[C@H]1CCOC[C@@H]1Oc1ccc(CO)cc1)c1n[nH]c2c1CCCC2`, the “% Inhibition” value is 10% and the Z score was -0.89.
As to `CC(NC(=O)N1CCOC(C(F)(F)F)C1C)c1ccnc(O)c1` (stereo unspecified), the “% Inhibition” value is on record as 20% and the Z score was -2.56.
On to `Cc1n[nH]c(C)c1CC(=O)N[C@H]1CCC[C@H]1c1ccccc1`, for which the “% Inhibition” value is listed as -8% and the Z score is given as 0.93.
